We go through 27 molecules from paper PMC6919601, “Identification of Plasmodium dipeptidyl aminopeptidase allosteric inhibitors by high throughput screening” (PLoS ONE, 2019).

Out of some 110,000 compounds screened, about 230 (0.21%) showed an effect of 50% or more. This is one part of the list.
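Further: 30 min substrate incubation versus DMSO and 10 µM JCP410 controls.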

For the assay, the target named is DPAP1 (Plasmodium falciparum, UniProt Q8IIJ9). The assay is described as follows: primary screen, percent inhibition; read by cleavage of a fluorogenic dipeptide substrate; higher = more effect of the substance. More on the design: species or system P. falciparum D10 trophozoite lysates; single well.
Sequence of DPAP1 (Q8IIJ9 whole entry, looked up): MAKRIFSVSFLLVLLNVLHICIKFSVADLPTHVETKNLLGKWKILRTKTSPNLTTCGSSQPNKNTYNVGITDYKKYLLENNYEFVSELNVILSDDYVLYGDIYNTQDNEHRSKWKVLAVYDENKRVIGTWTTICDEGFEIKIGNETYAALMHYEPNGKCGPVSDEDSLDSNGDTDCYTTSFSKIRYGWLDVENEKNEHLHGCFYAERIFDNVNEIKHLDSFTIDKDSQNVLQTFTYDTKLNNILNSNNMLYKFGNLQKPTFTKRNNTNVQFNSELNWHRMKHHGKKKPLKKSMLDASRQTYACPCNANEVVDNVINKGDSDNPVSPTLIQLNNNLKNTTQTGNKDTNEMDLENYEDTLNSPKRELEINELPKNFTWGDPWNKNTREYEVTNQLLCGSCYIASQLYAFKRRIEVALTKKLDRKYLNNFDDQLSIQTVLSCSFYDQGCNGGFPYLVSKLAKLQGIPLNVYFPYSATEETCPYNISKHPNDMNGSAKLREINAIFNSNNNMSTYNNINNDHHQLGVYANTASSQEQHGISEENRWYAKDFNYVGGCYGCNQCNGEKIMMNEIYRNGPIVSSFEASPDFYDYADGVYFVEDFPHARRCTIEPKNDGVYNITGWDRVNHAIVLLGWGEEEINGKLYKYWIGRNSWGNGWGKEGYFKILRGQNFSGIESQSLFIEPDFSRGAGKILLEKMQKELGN
For `FC(F)(F)c1cc(-c2ccco2)nc2cc(-c3ccccc3)nn12`, the “% Inhibition @ 10 uM” value is 2%. Regarding `O=C(NCCCO)C(=O)NC1CCCCC1`, the “% Inhibition @ 10 uM” value is -5.9%. As for `CC1=C(C(N)=O)C(c2ccco2)C(C(N)=O)=C(C)N1`, the “% Inhibition @ 10 uM” value is reported as -2.29%.

In the case of `CN(C)CCN1C(=O)CC2(C)Sc3ccccc3N=C12` (stereo not drawn), the “% Inhibition @ 10 uM” value is listed as 2.48%. For `Cc1cc(O)c2c3c4c(cc(O)c13)C(C)(C)C(=O)c1c(O)cc(O)c(c1-4)C2=O`, the “% Inhibition @ 10 uM” value is 21.6%. In the case of `CC(=O)n1c2ccccc2c2c1c1ccccc1n2C` it was 2.51%; in that of `CCOC(=O)c1ccc(Nc2ccc([N+](=O)[O-])cn2)cc1`, -2.6%; in that of `Cc1cc(NS(=O)(=O)c2ccc(NC(=O)COc3ccc(C(C)(C)C)cc3)cc2)no1`, 4.77%. Regarding `O=C(CCCOc1ccc(Cl)cc1Cl)Nc1ccc(S(=O)(=O)N2CCOCC2)cc1`, the “% Inhibition @ 10 uM” value worked out at 1.7%.

As for `CCCCCOC(=O)Nc1ccc(S(=O)(=O)Nc2ccc(Br)cc2)cc1`, the “% Inhibition @ 10 uM” value is -7.11%. Regarding `Cc1cc(Oc2nc3ccccn3c(=O)c2/C=C(\C#N)C(=O)NC2CCCC2)ccc1Cl`, the “% Inhibition @ 10 uM” value was 16.3%. In the case of `CC(/N=C/C1=C(O)CNC1=O)c1ccccc1` (stereo not drawn), the “% Inhibition @ 10 uM” value is 2.17%. Regarding `COc1cc(OC)c(/C=C2\SC(=O)N(Cc3ccc(F)cc3)C2=O)cc1Br`, the “% Inhibition @ 10 uM” value is on record as 1.81%. For `Cc1nnc2c3ccccc3c(N3CCOCC3)nn12`, the “% Inhibition @ 10 uM” value worked out at 5.36%. Then `O=S1(=O)C(/C=N/Cc2ccco2)=C(O)c2sccc2N1Cc1ccccc1`, with -2.53%. Turning to `N#C/C(=C\c1cccc(F)c1)c1nc(-c2ccc(Cl)c(Cl)c2)cs1`, the “% Inhibition @ 10 uM” value was -2.42%. In the case of `O=C(C1c2ccccc2C(=O)N2CCc3ccccc3C12)N1CCN(C2CCCCC2)CC1` (stereo not drawn), the “% Inhibition @ 10 uM” value is listed as -8.56%. Take `Cc1onc(-c2ccccc2)c1C(=O)NCCCNC(=O)c1c(-c2ccccc2)noc1C`: the “% Inhibition @ 10 uM” value stood at 3.6%. Turning to `Cc1ccccc1C(=O)NCCn1c(C)cc2ccccc21`, the “% Inhibition @ 10 uM” value was -0.396%. For `COc1ccc(NS(=O)(=O)c2ccc([N+](=O)[O-])cc2)cc1`, the “% Inhibition @ 10 uM” value worked out at 5.69%. Turning to `COc1cccc(-c2csc(C(=O)N[C@@H](CC(C)C)C(=O)NCC#N)c2)c1`, the “% Inhibition @ 10 uM” value is -1.41%. Then `O=C(NCCOc1ccc(F)cc1)c1cccs1`, with 0.0719%; and `Cc1ccccc1C(=O)NCc1nc(-c2ccccc2)no1`, with -1.22%; and `CC1(C)CC(=O)C2=C(C1)c1c(ccc3ccccc13)NC2c1ccc(-c2ccc(C(=O)O)cc2)o1` (stereo not drawn), with 6.9%. In the case of `CCOC(=O)C1CCN(Cc2ccc(N(C)C)cc2)CC1`, the “% Inhibition @ 10 uM” value was 3.25%. Then `CCNC(=O)C1c2ccccc2C(=O)N(C2CCCC2)C1c1cccs1` (stereo not drawn), with -5.3%; and `O=C(CSc1nc(O)cc(-c2ccccc2)n1)c1c[nH]c2ccccc12`, with 4.18%.
